The whole screen tested about 310,000 compounds, of which about 2,200 (0.71%) showed an effect of 50% or more. The effect is printed as a negative number. The list shows a part of the results.
Target: human ether-à-go-go-related gene (hERG) potassium channel (human, UniProt Q12809)
Experiment: primary screen, population patch clamp on CHO cells stably expressing hERG

Sequence of human ether-à-go-go-related gene (hERG) potassium channel (Q12809 whole entry, looked up): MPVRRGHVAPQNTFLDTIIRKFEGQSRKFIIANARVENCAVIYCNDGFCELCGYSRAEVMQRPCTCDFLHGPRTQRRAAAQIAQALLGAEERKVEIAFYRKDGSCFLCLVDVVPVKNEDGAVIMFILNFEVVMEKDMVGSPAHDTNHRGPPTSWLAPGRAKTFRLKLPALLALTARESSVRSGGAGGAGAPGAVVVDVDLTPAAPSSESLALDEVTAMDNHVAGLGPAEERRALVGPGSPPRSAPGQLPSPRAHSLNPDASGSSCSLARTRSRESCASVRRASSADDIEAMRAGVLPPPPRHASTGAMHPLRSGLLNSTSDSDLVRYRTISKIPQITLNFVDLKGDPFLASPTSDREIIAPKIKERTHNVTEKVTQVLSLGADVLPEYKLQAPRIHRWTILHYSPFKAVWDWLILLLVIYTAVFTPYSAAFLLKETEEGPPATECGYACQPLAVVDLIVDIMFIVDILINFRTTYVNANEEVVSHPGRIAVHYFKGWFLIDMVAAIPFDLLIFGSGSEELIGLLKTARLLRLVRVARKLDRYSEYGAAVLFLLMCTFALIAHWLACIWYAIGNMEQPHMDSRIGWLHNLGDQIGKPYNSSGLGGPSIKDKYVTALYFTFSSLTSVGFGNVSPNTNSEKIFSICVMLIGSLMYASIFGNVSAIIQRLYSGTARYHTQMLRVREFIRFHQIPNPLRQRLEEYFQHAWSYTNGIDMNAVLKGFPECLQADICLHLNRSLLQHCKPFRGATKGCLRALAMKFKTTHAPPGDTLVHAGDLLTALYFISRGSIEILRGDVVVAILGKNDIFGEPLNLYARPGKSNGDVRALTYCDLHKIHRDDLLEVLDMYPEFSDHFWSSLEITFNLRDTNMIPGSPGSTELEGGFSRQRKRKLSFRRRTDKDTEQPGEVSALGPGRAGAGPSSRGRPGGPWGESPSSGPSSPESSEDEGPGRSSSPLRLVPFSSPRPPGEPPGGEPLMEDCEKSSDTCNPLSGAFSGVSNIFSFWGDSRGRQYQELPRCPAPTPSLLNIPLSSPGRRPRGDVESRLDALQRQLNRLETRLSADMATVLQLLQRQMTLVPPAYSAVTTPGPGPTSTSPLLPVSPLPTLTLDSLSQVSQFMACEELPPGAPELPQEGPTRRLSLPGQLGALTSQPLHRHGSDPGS

Structure (SMILES) | hERG current change (%, negative = inhibition) at 1uM [%]
Cc1sc(NC(=O)CSc2nnc(-c3ccccc3)o2)c(C#N)c1C | 12
CCOc1cc(-c2nn3cnnc3s2)cc(OCC)c1OCC | 7.82
NS(=O)(=O)c1ccc(NC(=S)NCc2ccccc2Cl)cc1 | 15.1
COc1cc(OC)c(C2CC(=O)N3CN(c4ccc(C)cc4)CSC3=C2C#N)cc1OC (stereo not drawn) | -0.377
Cc1ccc(CN(C#N)c2nc(C)cc(C)n2)cc1 | 8.7
CN1CCN/C1=C(/C(Cl)=C(Cl)Cl)[N+](=O)[O-] | 16.2
Cc1onc(-c2c(F)cccc2Cl)c1C(=O)OCC(=O)NC(c1ccccc1)c1ccccc1 | -4.07
CCN(CC)CCN(C(=O)c1ccc(S(=O)(=O)N2CCCCC2)cc1)c1nc2cc3c(cc2s1)OCO3.Cl | 1.02
CCOc1ccc(S(=O)(=O)Nc2cnc3ccccc3c2)cc1 | 1.61
Cc1ccc(NS(=O)(=O)c2ccc(NC(=O)c3cccs3)cc2)c(C)c1 | 7.36
N/C(CSc1nc(-c2ccccc2)c(-c2ccccc2)o1)=N\O | -10.3
CC(=O)c1ccc(N2CCN(C(=O)c3ccc(C(=O)c4ccccc4)cc3)CC2)cc1 | 4.52
CC(C)Oc1ccc(S(=O)(=O)N2CCOCC2)cc1NC(=O)C1CCCCC1 | 5.06
COC(=O)C1=CO[C@@H](C)[C@H]2CN3CCc4c([nH]c5ccccc45)[C@@H]3C[C@H]12.Cl | -0.205
CCC(C(=O)NC1CCCC1)N(C(=O)Cn1nnc(-c2cccs2)n1)c1cnc2ccccc2c1 (stereo not drawn) | 11.5
CC1=C(C(=O)OCc2ccccc2)C(c2ccccc2OS(=O)(=O)c2ccc([N+](=O)[O-])cc2)NC(=O)N1CCCC(=O)O (stereo not drawn) | 6.89
CN(C)c1ccc(C(=S)N2CCN(c3ccc([N+](=O)[O-])cc3)CC2)cc1 | -4.99
CCOC(=O)C1=C(C)Nc2ccccc2N/C1=N\S(=O)(=O)c1cccc(Cl)c1 | 7.87
COc1ccc2c(C(=O)CN3CCN(CCO)CC3)c[nH]c2c1 | -3.72
Cc1ccc(C(=O)N2CCN(c3cccc(C)c3C)CC2)cc1S(=O)(=O)N1CCOCC1 | -2.68
CCC(=O)NCCc1nc2cc(NC(=O)c3cccc([N+](=O)[O-])c3)ccc2n1C | 11.8
O=C(COc1ccc(Br)cc1)N(CCO)CCO | 7.4

Structure (SMILES) | hERG current change (%, negative = inhibition) at 1uM [%]
Cc1c(NC(=O)c2ccc(S(=O)(=O)N(C)c3ccccc3)cc2)c(=O)n(-c2ccccc2)n1C | 15.4
COc1cccc(OCC(O)CN2CCN(c3ccccn3)CC2)c1.Cl (stereo not drawn) | 6.51
Cc1ccc2nc(N3C(=O)CNC3=S)sc2c1 | 21
CC(C)Cc1cc(C(=O)N2CCCC(CO)(Cc3ccc(F)cc3)C2)no1 (stereo not drawn) | -0.285
COc1cccc(NC(=S)Nc2cc(C(=O)O)ccc2N2CC3CC(C2)c2cccc(=O)n2C3)c1 (stereo not drawn) | 12.3
S=C(Nc1ccccc1)N1CCn2c1nc1ccccc12 | 0.203
O=C(Cn1c(=O)[nH]c2ccccc2c1=O)Nc1ccc2c(c1)OCCO2 | 14.6
O=C(NCC1CCCO1)c1ccc2c(=O)n(CC3CCCO3)c(SCC(=O)N3CCCC3)nc2c1 (stereo not drawn) | 5.44
Nc1nnc(CC(=O)N/N=C/c2ccc(-c3ccccc3Cl)o2)s1 | 14.1
CNC(=S)Nc1cccc([N+](=O)[O-])c1 | -8.83
O=C(c1ccc(NS(=O)(=O)c2ccc3[nH]c(=O)[nH]c3c2)cc1)N1CCCCC1 | -4.74
CCOC(=O)c1ccc(NC(=O)Nc2ccon2)cc1 | 11.5
Cc1nnc(SCC(=O)NC(C)(C)C)n1NCc1cccc(Br)c1 | 6.96
COc1cccc(NC(=O)CCSc2ccc3ccccc3n2)c1 | 6.26
Cc1cccc(CN2CCN(CC(C)C)C(CCO)C2)n1 (stereo not drawn) | 9.17
CN1CCN(C(=O)/C=C/c2cccc(Cl)c2)CC1 | 12.5
O=C1NC(c2ccccc2)=C(c2ccc3ccccc3n2)C(c2ccc(F)cc2)N1 (stereo not drawn) | 7.04
CCNS(=O)(=O)c1ccc(CCC(=O)N2CCN(c3ccc(OC)cc3)CC2)cc1 | 9.79
Cc1cc(N2CCN(C)CC2)ccc1NC(=O)c1ccc(-c2ccc(Cl)cc2)o1 | -4.7
O=C(Nc1ccc2oc(-c3ccccc3)nc2c1)c1ccccc1F | 1.51
CC(C)OC(=O)CSc1nc(N)c(C#N)c(-c2cccs2)c1C#N | 9.92
Cc1ccc(NC(=O)C(C)N2C(=O)c3ccccc3C2=O)nc1 (stereo not drawn) | 20.4

Structure (SMILES) | hERG current change (%, negative = inhibition) at 1uM [%]
CCN(CC(=O)Nc1ccc2c(c1)OCCO2)S(=O)(=O)c1ccc(C)cc1 | -2.78
COc1ccc(OC2CCN(S(=O)(=O)c3cccc(F)c3)CC2)cc1 | 10.4
Cc1ccccc1N(C(=O)CNC(=O)c1ccco1)C(C(=O)NC1CCCCC1)c1ccncc1 (stereo not drawn) | 5.2
CC(=O)c1cccc(NC(=O)CNC(=O)c2cc3ccccc3o2)c1 | 10.9
O=C(COc1ccccc1Cl)Nc1ccccc1C(=O)NC1CC1 | 1.14
O=C(O)CCCC(=O)Nc1ccc(Cl)cc1 | 9.18
CC(C)C(NC(=O)c1cccc(S(=O)(=O)N2CCOCC2)c1)C(=O)NCc1ccc(Cl)cc1 (stereo not drawn) | 12.6
CCN(CC)C(=O)CC(c1ccccc1)c1ccco1 (stereo not drawn) | 2.11
COc1ccc(N)cc1S(=O)(=O)Nc1ccccc1Cl | 13.9
O=c1c(C/C=C/c2ccccc2)c(O)ccn1CCc1c[nH]c2ccccc12 | 13.4
Cc1ccc(C(=O)OCC(=O)N(C)c2ccccc2)c(C)c1 | 18.9
CN1C(C(=O)NCc2cccc(C(F)(F)F)c2)CC2Cn3c(nc4cc5ccccc5cc43)C21 (stereo not drawn) | -10.8
COc1ccc(CNc2ncc(-c3ccccc3)n2C)c2ccccc12.O=C(O)C(=O)O | 10.6
COc1cccc(NC(=O)Cn2cc(C#N)c3ccccc32)c1 | 9.84
Br.N=C(N)SCc1nc2ccccc2c(=O)n1-c1ccccc1Cl | 1.95
CC(=O)C1=C(C)N(Cc2ccccc2)C(=O)N[C@H]1c1cccs1 | 2.8
O=C(O)C1CC=CCC1C(=O)Nc1cccnc1 (stereo not drawn) | 6.4
Cc1cc(=O)[nH]c2c(C)cc(S(=O)(=O)Nc3ccc(O)cc3)cc12 | 13.3
COc1ccc(S(=O)(=O)Cc2ccc(C(=O)N3CC(C)CC(C)C3)o2)cc1 (stereo not drawn) | -5.28
COc1cc(C)c(C)cc1S(=O)(=O)NC1CC(C)(C)NC(C)(C)C1 | 11.3
CCOc1ccc(CN2CCSCC2)cc1 | 8.31
CCn1c(SCc2nc3ccccc3c(=O)[nH]2)nnc1-c1cccnc1 | 2.89

Structure (SMILES) | hERG current change (%, negative = inhibition) at 1uM [%]
Cc1ccc(S(=O)(=O)N2CCCC2C(=O)Nc2nc3c(s2)CCCC3)cc1 (stereo not drawn) | 13.2
CC1=NS(=O)(=O)c2cc(Cl)ccc2N1 | 3.24
COc1ccccc1C(=O)Nc1cc2cc(Cl)ccc2oc1=O | -0.255
CN(CCO)C(=O)CCC(=O)Nc1ccc(S(N)(=O)=O)cc1 | -4.32
C=CCN(CC=C)S(=O)(=O)c1ccc(NC(=S)NC(=O)/C=C/c2ccc(C)cc2)cc1 | 5.21
COc1ccc(-c2csc(N3CCN(c4cc(C)nc5ccccc45)CC3)n2)cc1OC | 0.19
CCC(C(=O)Nc1ccc(C(=O)N2CCCC2)cc1)c1ccccc1 (stereo not drawn) | 12.7
O=c1c2ccccc2[nH]c(=S)n1Cc1cccnc1 | 7.38
CCCCCOc1ccc(CSc2n[nH]c(C)n2)cc1 | 16.1
CNC(=O)C1CC(=O)N(CCCc2ccccc2)C(=Nc2ccccc2)S1 (stereo not drawn) | 5.55
O=C(Cc1ccccc1)N[C@H](c1ccccc1)P(=O)(O)CO | 6.22
O=C(CC(Cc1ccccc1)C(=O)O)NCCc1ccc2c(c1)OCO2 (stereo not drawn) | -9.79
O=C1CSCN1c1ccc(Cl)cc1 | 9.08
CCC(C)(C)n1nnnc1C(c1cc2cc(C)cc(C)c2[nH]c1=O)N1CCCC1 (stereo not drawn) | 7.13
CC(C)CC(NS(=O)(=O)c1ccccc1)C(=O)O (stereo not drawn) | 10.3
CCOc1ccc(NC(=O)CSCC(=O)O)cc1 | 4.12
O=C(CSc1nc2ccccc2c(=O)n1Cc1ccco1)NCCN1C(=O)CSC1=O | -56
COc1ccc(Cl)cc1NC(=O)Cn1c(=O)n2nc(C)nc2c2ccccc21 | 0.74
COc1ccccc1C1C(C#N)=C(N)N(N(C)C)C2=C1C(=O)CC(C)(C)C2 (stereo not drawn) | 6.54
CSCC(=O)N1CCCC(N2CCN(c3cccc(C(F)(F)F)c3)CC2)C1 (stereo not drawn) | -18.4
CC(=O)c1cccc(NC(=O)c2ccc(N(Cc3ccc(C)cc3)S(C)(=O)=O)cc2)c1 | -13.7
